Reference: PubChem BioAssay AID624296 (National Center for Advancing Translational Sciences (NCATS), 2012)
The whole screen tested about 350,000 compounds, of which about 9,900 (2.8%) were called active. The inconclusive results got no clear call from the source; some entries with a clear call stand among them for comparison. Calls follow the shape of the dose curve; as a rule, active = well fitted activation curve with a large enough effect; inconclusive = small, poorly fitted or top-dose-only effect; inactive = no such curve, though single readings can be large or run the other way. Potencies of inconclusive entries are left out as doubtful fits.

Assay: A quantitative high throughput screen for small molecules that induce DNA re-replication in MCF 10a normal breast cells. Also: nearly all actives have a fitted effect of over 50% in size. As to activity, positive = re-replication: % of control where 0% means no effect.
Conditions: MCF 10A DNA re-replication, Hoechst nuclear intensity, 48 h; activity, positive = re-replication: at 46.1 µM (top of the series)
Potency is read from the fitted curve at half-maximal effect; tags tell the direction and shape of the fitted curve.

Row | SMILES | activity, positive = re-replication | Potency
1 | CCn1nnc(NC(=O)c2cccnc2Cl)n1 | inactive: 0.191% | –
2 | CC(=O)N1CCN(C(=O)CSc2nnc(C)n2-c2ccccc2)CC1 | – | inconclusive [activator, single point]
3 | CCN1CCN(c2cc(C)c3cc(NC(=S)N4CCOCC4)ccc3n2)CC1 | – | inconclusive [activator, single point]
4 | CCOc1ccc(S(=O)(=O)Nc2cccc(C(=O)N3CCN(c4ccccc4O)CC3)c2)cc1 | – | inconclusive [activator, partial curve, poor fit]
5 | Cc1ccnc(N2CCC(C(=O)Nc3ccc4c(c3)OCCO4)CC2)n1 | – | inconclusive [activator, partial curve, poor fit]
6 | COc1ccc(CNC(=O)Cc2csc(NC(=O)Nc3ccccc3OC)n2)cc1 | – | inconclusive [activator, single point]
7 | Cc1ccc([C@@H]2CC=C(C(=O)O)[C@H](c3ccc(C(C)(C)C)cc3)N2S(=O)(=O)c2ccc(C)cc2)cc1 | – | inconclusive [activator, single point]
8 | CCC(C)NC(=O)c1nn(Cc2ccccc2)c(=O)c2ccccc12 (stereo not drawn) | – | inconclusive [activator, partial curve, poor fit]
9 | COc1ccc2c(c1)-c1nc(/N=C/c3c(O)ccc4ccccc34)sc1CC2 | – | inconclusive [activator, single point]
10 | COc1cc2c(cc1NC(=O)CSc1nnc(Cc3cccs3)n1Cc1ccco1)oc1ccccc12 | – | inconclusive [activator, single point]
11 | O=[N+]([O-])c1ccc(/C=N/NC2=NS(=O)(=O)c3ccccc32)cc1 | inactive: -4.16% | –
12 | CCc1ccc(C2c3[nH]c4ccccc4c3CCN2C(=O)c2ccc(=O)n(C)n2)cc1 (stereo not drawn) | inactive: 16% | –
13 | CCOC(=O)c1c(C)oc2ccc(NS(=O)(=O)c3ccc4c5c(cccc35)C(=O)N4)cc12 | – | inconclusive [activator, single point]
14 | O=C(NC1CCCCC1)NC1(C(=O)NCCCN2CCOCC2)CCCCC1 | – | inconclusive [activator, partial curve, poor fit]
15 | CCc1cc2c(=O)n(Cc3ccco3)c(SCc3c(C)noc3C)nc2s1 | – | active: 3.26 µM
16 | COc1cc(C2C(c3ccccc3)C(c3cc(OC)cc(=O)o3)C2c2ccccc2)oc(=O)c1 (stereo not drawn) | – | inconclusive [activator, full curve, poor fit]
17 | CCOC(=O)C1=NN(C(C)=O)C2(CC(=O)N(c3ccc(C)c(C)c3)C2=O)C1 (stereo not drawn) | inactive: 0.703% | –
18 | O=C(NCC(c1ccco1)N1CCc2ccccc2C1)c1ccc(Cl)cc1 (stereo not drawn) | – | inconclusive [activator, single point]
19 | COc1cccc(CN(C(=O)c2ccco2)C(C(=O)NC2CCCC2)c2cccnc2)c1 (stereo not drawn) | – | inconclusive [activator, single point]
20 | O=C(O)c1cc(-c2ccc(/C=N/Nc3ccc(Cl)cc3)o2)ccc1Cl | – | inconclusive [activator, single point]
21 | CCc1ccccc1NC(=O)CN1CCN(C(=O)CN2C(=O)NC3(CCCC3)C2=O)CC1 | – | inconclusive [activator, full curve, poor fit]
22 | Cc1ccc(C(=O)Nc2nc3ccc(Cl)cc3s2)o1 | – | inconclusive [activator, full curve]

Row | SMILES | activity, positive = re-replication | Potency
23 | O=C(CSc1nc(-c2ccco2)cc(C(F)(F)F)n1)N1CCN(c2cccc(Cl)c2)CC1 | – | inconclusive [activator, partial curve, poor fit]
24 | O=C(Nc1ccc(Cl)cc1F)c1ccc(COc2c(F)c(F)c(F)c(F)c2F)o1 | inactive: 6.03% | –
25 | Cc1[nH]c(C)c(C(=O)/C=C/c2ccc([N+](=O)[O-])cc2)c1C | – | active: 11.6 µM
26 | O=C1NCCCN1Cc1ccc(Cl)cc1 | inactive: -13.8% | –
27 | O=C(Nc1nnc(-c2ccncc2)o1)c1ccc2ccccc2c1 | inactive: 9.63% | –
28 | CC(=O)c1cccc(NC(=O)Cc2cccs2)c1 | inactive: -3.83% | –
29 | COc1cc(/C=N/N=C2/NC(=O)C(c3ccccc3)S2)ccc1O (stereo not drawn) | inactive: 15.4% | –
30 | Cc1nc2ccc(NS(=O)(=O)c3ccc(F)c(F)c3)cc2s1 | – | inconclusive [activator, partial curve, poor fit]
31 | CN(CC(=O)Nc1sc2c(c1C#N)CCCCC2)Cc1nc2ccccc2c(=O)[nH]1 | – | inconclusive [activator, partial curve]
32 | COC(=O)c1c(C)[nH]c(C(=O)/C=C/c2ccccc2F)c1C | – | inconclusive [activator, single point]
33 | O=C(CCN1CCOCC1)c1ccc(Br)cc1 | – | active: 9.2 µM
34 | Cc1ccc(C2=N/C(=C\N3CCCCC3)C(=O)O2)cc1 | – | inconclusive [activator, single point]
35 | CC(=O)Nc1nc(C2CC2)cc(-c2ccccc2)c1C#N | – | inconclusive [activator, single point]
36 | O=C(Cc1ccc(Cl)c(Cl)c1)Nc1ccc(SC(F)F)cc1 | – | inconclusive [activator, partial curve, poor fit]
37 | CCN(CCCNC(=O)c1ccc2c(c1)NC(=O)CN2C)c1cccc(C)c1 | – | inconclusive [activator, single point]
38 | Cc1cc(O)c(-c2cc(C(=O)NCCc3ccc(S(N)(=O)=O)cc3)[nH]n2)cc1C | inactive: 0.0826% | –
39 | O=C(N/N=C/c1ccc(O)cc1O)NC12CC3CC(CC(C3)C1)C2 | – | inconclusive [activator, single point]
40 | O=C(O)c1ccccc1C(=O)Nc1ccccc1NC(=O)c1ccccc1C(=O)O | – | inconclusive [activator, single point]
41 | CCOC(=O)CSc1nc2c(sc(=S)n2-c2ccccc2)c(=O)[nH]1 | inactive: 6.04% | –
42 | CNc1ccc(S(=O)(=O)NC)cc1[N+](=O)[O-] | – | inconclusive [activator, partial curve, poor fit]
43 | CN(CC(=O)Nc1ccc(Cl)c(C(F)(F)F)c1)C(=O)c1cc(=O)c2ccccc2o1 | – | inconclusive [activator, single point]
